Out of some 50,000 compounds screened, about 800 (1.6%) showed an effect of 50% or more. This is one part of the list.
These compounds were tested against Bcl-2-like protein 10 (Homo sapiens) (UniProt Q9HD36) (assay: Phenotype converters, Bcl-B/TR3 peptide binding displacement, primary biochemical FP (AID 1240;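 also: 0% = Bcl-B with tracer peptide and DMSO and 100% = tracer peptide lacking Bcl-B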)). Conditions: GST-Bcl-B / FITC-TR3 peptide fluorescence polarization; stronger effect = higher value; compound at 3.75 mg/L.
Chain of UniProt Q9HD36 (Q9HD36 whole entry, looked up): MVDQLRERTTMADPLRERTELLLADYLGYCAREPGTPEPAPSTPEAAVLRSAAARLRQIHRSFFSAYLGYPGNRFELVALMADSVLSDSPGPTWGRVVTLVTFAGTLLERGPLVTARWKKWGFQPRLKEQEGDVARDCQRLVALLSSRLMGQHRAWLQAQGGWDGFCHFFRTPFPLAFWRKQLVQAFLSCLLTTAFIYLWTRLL
COc1cc(/C=C/C(=O)O)cc(S(=O)(=O)NCCCC(=O)O)c1OC gave a displacement of 2.4%. Work on Cc1ccc(C(=O)Nc2ccc(Oc3ccccc3)cc2)o1 yielded a displacement of -2.2%. For CN1CCC(N(C)S(=O)(=O)c2ccccc2[N+](=O)[O-])CC1, the displacement was 15%. For Cc1ccc(OCC(=O)Nc2ccc(Cl)cn2)c(Br)c1, the displacement was 9.2%. CCOC(=O)C1=C(C)NC2=C(C(=O)CC(c3ccccc3)C2)C1c1ccc(C)o1 (stereo not given) was tested, and the displacement was 8%. O/N=C\c1ccc(-c2ccc(Cl)c(Cl)c2)o1 showed a displacement of -7.3%. In the case of O=C(Nc1nc(-c2ccc(Cl)cc2)cs1)c1ccc(S(=O)(=O)N2CCCCC2)cc1, the displacement is reported as -9.5%. Work on Cc1cc(Cl)ccc1OCC(=O)NNC(=O)CC#N yielded a displacement of -22.6%. Compound CC(C)c1ccc(/C=C2/SC(=S)N(CN3CCOCC3)C2=O)cc1 has a displacement of 4.5%. For O=C(N/N=C\c1c(O)ccc2ccccc12)c1cccc2cc[nH]c12, the displacement was 34.1%. COc1ccccc1N1CCN(C(=O)COc2ccc(Cl)cc2C)CC1 was tested, and the displacement was -4.5%. In the case of C=CCn1c(CSc2nc3ccccc3s2)n[nH]c1=S, the displacement is reported as 17.3%. COc1ccc(C2C(C#N)=C(N)Oc3cc(N)ccc32)cc1 (stereo not given) showed a displacement of 0%. Cc1ccc(OCC(=O)Nc2ccccc2Cl)c(C)c1 was tested, and the displacement was 10.7%. With COc1cccc(N2C(=O)C(=O)/C(=C(\O)c3ccccc3)C2c2ccc([N+](=O)[O-])cc2)c1 (stereo not given) the displacement was 4.1%. Work on COc1ccc(OC)c(NC(=O)CN(CCc2ccccc2)S(=O)(=O)c2ccccc2)c1 yielded a displacement of 0.7%. With COC(=O)C(NC(C)=O)C12CC3CC(CC(C3)C1)C2 (stereo not given) the displacement was 4.2%. CC1=C(C(=O)OC2CCCC2)C(c2ccccc2C(F)(F)F)C2=C(CCCC2=O)N1 (stereo not given) gave a displacement of 2.6%. Compound CC1(C)Cc2ccccc2/C(=C/SC(=N)N)N1 has a displacement of -16.6%. COc1ccc(Oc2ccc(N)cc2)cc1 was tested, and the displacement was 14%. For CCOc1ccccc1N(CC(=O)Nc1ccccc1Cl)S(=O)(=O)c1ccccc1, the displacement was -3.2%. Cc1cc(=O)[nH]c(SCCOc2ccccc2C)n1 showed a displacement of 11.6%. COc1ccc(CCNC(=O)c2cnccn2)cc1 gave a displacement of -3%. In the case of CC(=O)Oc1ccc(C(=O)Nc2cccc(C(=O)NCC(C)C)c2)cc1, the displacement is reported as 5.6%. For c1ccc(-c2nnc(-c3ccccc3)c3nsnc23)cc1, the displacement was 5.3%. Compound Cc1ccc(N2NC(=O)/C(=C/c3ccc4c(c3)OCO4)C2=O)cc1Cl has a displacement of 16.8%. Cc1ccc(N2NC(=O)/C(=C/c3ccc(N(C)C)cc3)C2=O)cc1C showed a displacement of 9.3%. With Cc1cc(NC(=O)c2ccccc2C)ccc1NC(=O)c1cccs1 the displacement was -0.6%. Compound Cc1sc(C2C(C#N)=C(N)OC3=C2C(=O)CC(C)(C)C3)cc1[N+](=O)[O-] (stereo not given) has a displacement of -8.4%. With CCC(=O)N(CCC1(c2ccccc2)CCOC(C)(C)C1)c1ccc(OC)c(OC)c1 (stereo not given) the displacement was -14.8%. For O=C(CSCC(=O)Nc1ccc2ccccc2c1)Nc1cccc([N+](=O)[O-])c1, the displacement was 2.7%. O=C1c2ccccc2CCC1C1(O)C(=O)Nc2ccccc21 (stereo not given) showed a displacement of 9.2%. Compound CCOC(=O)C(O)C1CCc2c([nH]c3ccc(C)cc23)C1=O (stereo not given) has a displacement of 6.5%. Cc1ccc2nc(-c3ccc(C)c(NC(=O)COc4ccc(Cl)cc4C)c3)oc2c1 showed a displacement of -8.3%. In the case of COc1ccc(Cl)cc1NC(=O)CN1C(=O)c2ccccc2C1=O, the displacement is reported as 6.6%. With CCC(C(=O)Nc1nc(-c2ccc(F)cc2)cs1)c1ccccc1 (stereo not given) the displacement was 7.7%. CC(C)(C)C1(C)OC(O)(C(Cl)Cl)CC1=O (stereo not given) gave a displacement of -8.5%. COc1ccc(-c2nc3c(n2O)CCc2nonc2-3)cc1OC gave a displacement of 7.1%. Work on Cc1ccc(N2C(=O)NC(=O)/C(=C/c3cccc(OCC(=O)O)c3)C2=O)cc1 yielded a displacement of -19.8%. With CCOC(=O)c1ccccc1NC(=O)c1cnccn1 the displacement was -36.5%. Cc1ccccc1OCC(=O)Nc1ccc(Cl)cc1 showed a displacement of 12.8%. Clc1ccc(/C=N/Nc2nc(N3CCOCC3)nc(N3CCOCC3)n2)c(Cl)c1 showed a displacement of -9.9%. For COc1ccc(CC(=O)NC2CCCC2)cc1, the displacement was -9.7%. In the case of Clc1ccc(CSc2nnc(-c3ccc(Br)cc3)o2)c(Cl)c1, the displacement is reported as 10.6%. For Cc1c(Cc2ccccc2)c(=O)oc2cc(O)ccc12, the displacement was -38.1%. Compound COC(=O)C1=C(C(=O)OC)SC(=C2C(=S)C(C)(C)N(C(=O)Cc3ccccc3)c3c(OC)cccc32)S1 has a displacement of -4.5%. COc1ccc(C(=O)O)cc1S(=O)(=O)N1CCC(C)CC1 was tested, and the displacement was -4%. Work on O=C(Cc1ccccc1)Nc1nnc(COc2ccc(Cl)cc2Cl)s1 yielded a displacement of 10.9%. In the case of COc1ccc(-c2cc(C(=O)NCc3ccc(F)cc3)c3ccccc3n2)cc1OC, the displacement is reported as 7.5%. Work on O=C(Cn1c(O)c(N=NC(=O)c2ccc([N+](=O)[O-])cc2)c2ccccc21)Nc1ccccc1 yielded a displacement of 2.6%. Cc1c2n(c3ccccc13)CCNC2c1ccccc1 (stereo not given) gave a displacement of 14.5%. O=C(O)C(CO)NC(=O)C(F)(F)C(F)(F)C(=O)NC(CO)C(=O)O (stereo not given) was tested, and the displacement was 2%. Work on COC(=O)c1ccccc1NC(=O)Nc1ccc(Cl)cc1Cl yielded a displacement of 9%. O=c1cc(N2CCN(Cc3ccccc3)CC2)c2ccccc2n1-c1ccccc1 showed a displacement of -0.6%. Cc1cc(C)nc(NS(=O)(=O)c2ccc(N/C=C\C(=O)c3ccc4ccccc4c3)cc2)n1 gave a displacement of 14.7%. COc1ccc2c(c1)CCC1=C2NC(=S)NC1c1ccc(N(C)C)cc1 (stereo not given) gave a displacement of -17.6%. In the case of Cc1ccc(-c2nc(N/N=C/c3ccncc3)c3ccccc3n2)cc1, the displacement is reported as 8.4%. Cc1ccc(C(=O)Nc2sc3c(c2C#N)CCC(C)C3)cc1C (stereo not given) was tested, and the displacement was 3.3%. In the case of Cc1cc(C)n(C(=O)CNC(=O)COc2ccccc2C)n1, the displacement is reported as 10.5%. In the case of Cc1ccc(OCC(O)CN2C(C)(C)CC(O)CC2(C)C)c(C)c1 (stereo not given), the displacement is reported as 6.8%. With O=C(Nc1nnc(SCc2ccc(F)cc2)s1)c1ccccc1Br the displacement was -7.2%. Work on NC(=O)C1CCN(S(=O)(=O)c2ccc(Cl)cc2)CC1 yielded a displacement of 12.2%. With O=C(NCCN1CCCCC1)c1cc2ccccc2o1 the displacement was 10.5%. Compound COc1cc(C2C3=C(CC(C)(C)CC3=O)NC3=C2C(=O)CC(C)(C)C3)ccc1OCc1ccccc1 has a displacement of -18%. For O=C(Nc1ccc(OC(F)(F)F)cc1)c1ccccc1I, the displacement was -5.9%. CCOC(=O)C1=C(c2ccccc2)S/C(=C2/C(=S)C(C)(C)N(C(C)=O)c3ccc(OC)cc32)S1 was tested, and the displacement was 2.4%. In the case of CCc1ccccc1NC(=O)c1ccc2c(c1)OCO2, the displacement is reported as 3.3%. For O=C(CN(c1ccc(Br)cc1)S(=O)(=O)c1ccccc1)NC1CC2CCC1C2 (stereo not given), the displacement was -0.2%. Cc1ccc(CNC(=O)C(=O)Nc2cc(Cl)ccc2C)cc1 showed a displacement of 3.9%. For C=CCc1ccccc1OCC(=O)NN, the displacement was 7.4%. For NC(=O)N/N=C1\c2ccccc2-c2c(C(N)=O)cccc21, the displacement was 1.9%. O=C1CC(c2ccc(Cl)cc2)CC2=C1C(c1ccccc1C(F)(F)F)Nc1ccccc1N2 (stereo not given) gave a displacement of 15.5%. In the case of O=C1CC(c2ccc(Cl)cc2)c2cc(Br)c3ccccc3c2N1 (stereo not given), the displacement is reported as -10.4%. With O=C(NNc1nc(-c2ccccc2)cc(-c2ccc(F)cc2)n1)c1cccc([N+](=O)[O-])c1 the displacement was 7.2%. Compound Cc1ccc(C(=O)N2CCN(c3ccc(Cl)cc3[N+](=O)[O-])CC2)cc1 has a displacement of 12.8%. COc1ccc(NC(=O)CCC2CCCCC2)cc1 gave a displacement of 15.9%. With O=C(Nc1ccc(Cc2ccncc2)cc1)c1cc(Br)ccc1I the displacement was -13.6%. O=C(Nc1ccc(-c2nc3ccccc3o2)c(O)c1)c1cccnc1 gave a displacement of 33.2%. Work on CSCCC(NC(=O)/C(=C\c1ccc(Cl)cc1)NC(=O)c1ccccc1)C(=O)O (stereo not given) yielded a displacement of -21.2%. Compound COc1ccccc1NC(=O)c1cc(Nc2ccc(F)c(F)c2)nc2ccccc12 has a displacement of 19.9%. Compound O=C(c1cc(Cl)ccc1Cl)N(Cc1ccccc1)c1ccccn1 has a displacement of 11%. Compound Cc1cc(Br)ccc1S(=O)(=O)n1ccnc1C has a displacement of 9%. COc1ccc(C(c2cc(C(C)(C)C)c(O)c(C(C)(C)C)c2)N2CCOCC2)cc1 (stereo not given) gave a displacement of -7.4%. CCCOC(=O)c1ccc(NC(=O)c2cccc3ccccc23)cc1 gave a displacement of -24.6%. For COc1ccc(NC(=O)COc2ccc(-c3ccccc3)cc2)c([N+](=O)[O-])c1, the displacement was 34.5%. In the case of Brc1ccc(CN2CCN(C3CCN(Cc4ccccc4)CC3)CC2)cc1, the displacement is reported as -15.5%. O=C(CSc1nc2sc3c(c2c(=O)[nH]1)CCCC3)N1CCOCC1 showed a displacement of -17.8%. Compound CC(=O)c1ccc(Nc2nc(NCCO)nc(OC(C(F)(F)F)C(F)(F)F)n2)cc1 has a displacement of 18.1%. Compound O=C(Nc1nc(-c2ccc(Cl)cc2Cl)cs1)c1cccc(Cl)c1 has a displacement of 1.6%. Work on CC(C)c1ccc(N=Cc2ccc(OC3CSC3)cc2)cc1 yielded a displacement of 2.6%. O=C1NC(=Nc2ccc(O)cc2)S/C1=C/C(Cl)=C/c1ccc([N+](=O)[O-])cc1 showed a displacement of 9.5%. In the case of CCOc1ccc2nc(SC3CC(=O)N(c4ccc(OC)cc4)C3=O)sc2c1 (stereo not given), the displacement is reported as -4%. O=C1c2ccc(Oc3ccc([N+](=O)[O-])cc3)cc2C(=O)N1CCCO showed a displacement of 8.6%. In the case of Clc1ccc(/C=C/C=Nc2cccc(-c3nc4ccccc4o3)c2)cc1, the displacement is reported as 25.8%. Compound COc1ccc(S(=O)(=O)Nc2ccc(I)cc2)cc1OC has a displacement of 14.1%. Cc1c(NC(=O)c2ccc3ccccc3n2)c(=O)n(-c2ccccc2)n1C showed a displacement of 13.8%. Work on CC1(C)CC(N2CN=C(N)N(C#N)C2)CC(C)(C)N1 yielded a displacement of 7.3%. CS(=O)(=O)N(Cc1ccc(C(=O)Nc2ccc3c(c2)OCO3)cc1)c1ccccc1 was tested, and the displacement was 0.1%. For Cc1cc(-n2c(C)cc(C=O)c2C)ccc1Br, the displacement was 1.6%. With CC(C)OC(=O)c1ccc(NC(=O)C(C(C)C)N2C(=O)c3ccccc3C2=O)cc1 (stereo not given) the displacement was -3.7%. N#Cc1c(NC(=O)c2ccc(C(=O)O)cc2C(=O)O)sc2c1CCCC2 was tested, and the displacement was 11%. For CCOc1ccccc1OCCN1CCCC1, the displacement was -0.6%. Compound C=CCn1c(-c2ccccc2)n[nH]c1=S has a displacement of -1%. Compound CSc1ccccc1NC(=O)c1c(F)cccc1F has a displacement of 4.2%. For Cc1ccc(C(=O)Nc2ccc(NC(=O)c3ccco3)c(Cl)c2)cc1C, the displacement was -8.9%. With Cc1ccc(-c2cc(C(=O)O)c3cc(Br)ccc3n2)cc1 the displacement was 16.2%. For CC(C)Oc1ccccc1NC(=O)c1ccc(Cl)cc1Cl, the displacement was 11%. CNC(=S)C1COc2ccccc2O1 (stereo not given) was tested, and the displacement was 11.1%. Compound COc1ccc(Oc2coc3cc(OS(C)(=O)=O)ccc3c2=O)cc1 has a displacement of -7.7%. For C=CCNC(=O)CN(c1ccccc1)S(=O)(=O)c1ccccc1[N+](=O)[O-], the displacement was 2.8%.

From PubChem BioAssay AID1240 (Sanford-Burnham Center for Chemical Genomics, 2008)
